# Measurements taken from publication PMC4336329 (PLoS ONE, 2015).
# The whole screen tested about 310,000 compounds, of which about 2,200 (0.71%) showed an effect of 50% or more. The effect is printed as a negative number. The list shows a part of the results.
# Molecular target: human ether-à-go-go-related gene (hERG) potassium channel (human, UniProt Q12809)
# Experiment: primary screen, population patch clamp on CHO cells stably expressing hERG
# Chain of human ether-à-go-go-related gene (hERG) potassium channel (Q12809 whole entry, looked up): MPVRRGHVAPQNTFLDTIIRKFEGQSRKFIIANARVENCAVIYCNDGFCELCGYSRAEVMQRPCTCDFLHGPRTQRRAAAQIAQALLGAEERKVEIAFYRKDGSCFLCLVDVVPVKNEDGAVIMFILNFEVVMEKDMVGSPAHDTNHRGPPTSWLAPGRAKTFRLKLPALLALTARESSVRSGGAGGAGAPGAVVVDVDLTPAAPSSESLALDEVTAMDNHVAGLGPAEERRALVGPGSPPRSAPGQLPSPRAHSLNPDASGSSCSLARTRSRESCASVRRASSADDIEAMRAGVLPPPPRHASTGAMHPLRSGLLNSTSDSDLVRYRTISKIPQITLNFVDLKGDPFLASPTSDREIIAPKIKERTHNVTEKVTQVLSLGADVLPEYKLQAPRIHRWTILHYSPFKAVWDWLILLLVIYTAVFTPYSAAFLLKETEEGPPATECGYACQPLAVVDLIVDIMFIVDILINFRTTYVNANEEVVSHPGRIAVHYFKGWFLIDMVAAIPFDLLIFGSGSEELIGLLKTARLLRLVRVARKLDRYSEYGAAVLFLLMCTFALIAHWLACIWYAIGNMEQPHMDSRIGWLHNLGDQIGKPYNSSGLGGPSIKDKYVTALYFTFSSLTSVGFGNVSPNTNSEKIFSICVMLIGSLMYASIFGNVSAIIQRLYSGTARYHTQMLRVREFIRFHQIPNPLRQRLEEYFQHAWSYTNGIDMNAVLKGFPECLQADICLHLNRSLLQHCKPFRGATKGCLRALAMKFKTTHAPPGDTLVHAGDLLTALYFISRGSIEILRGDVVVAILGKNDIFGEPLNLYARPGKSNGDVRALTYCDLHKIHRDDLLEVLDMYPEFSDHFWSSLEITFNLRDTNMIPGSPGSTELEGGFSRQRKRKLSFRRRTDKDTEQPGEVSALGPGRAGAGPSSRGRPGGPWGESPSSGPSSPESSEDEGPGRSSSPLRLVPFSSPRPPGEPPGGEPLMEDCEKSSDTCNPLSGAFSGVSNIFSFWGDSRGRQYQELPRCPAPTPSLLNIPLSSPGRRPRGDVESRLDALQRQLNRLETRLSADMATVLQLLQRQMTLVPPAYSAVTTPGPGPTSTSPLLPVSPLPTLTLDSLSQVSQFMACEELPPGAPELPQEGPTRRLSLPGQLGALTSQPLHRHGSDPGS
row,SMILES,"hERG current change (%, negative = inhibition) at 1uM [%]"
1,Cc1nc2cc3nc(C)sc3cc2s1,3.19
2,O=C(NC1CCSc2ccccc21)c1cc([N+](=O)[O-])ccc1N1CCOCC1 (centres unmarked),2.08
3,CCNc1ccc(C(=O)OCC(=O)NCc2ccc(C)cc2)cc1[N+](=O)[O-],19.2
4,COc1ccc(S(=O)(=O)N2CCCC2)cc1C(=O)N1CCOCC1,7.3
5,O=C(NCCC1CCCCN1S(=O)(=O)c1cccs1)C(=O)NCc1ccccc1 (centres unmarked),8.42
6,C#Cc1ccc([C@H]2C=C(C(=O)NC3CC3)O[C@@H](OCC)[C@@H]2CCCO)cc1,10.2
7,CN(Cc1ccccc1)C(=O)C(C(=O)c1ccc(F)cc1)n1cc(Cl)ccc1=O (centres unmarked),3.03
8,CC(C)N(c1ccccc1)c1ccc(NC(=S)NCCN(C)C)cc1,11.7
9,Cc1c(N/C=C(\Cl)C(=O)C(F)(F)F)c(=O)n(-c2ccccc2)n1C,5.98
10,O=C(NC(=S)Nc1ccc2c(c1)OCCO2)c1ccccc1F,8.56
11,COc1cccc2cc(C(C)=O)oc12,2.49
12,CCn1c(N2CCN(S(=O)(=O)c3ccccc3C(F)(F)F)CC2)nc2ccccc21.Cl,8.63
13,O=C1CCCN1CCCNC(=S)Nc1ccc(Cl)cc1Cl,-0.0778
14,N=c1c(C(=O)NCCN2CCOCC2)cc2c(=O)n3ccccc3nc2n1Cc1ccc(F)cc1,-19.2
15,Cc1ccc(-n2nc(-c3ccco3)cc2C(=O)NCc2cccnc2)cc1,-3.39
16,CCC1OC2(C)OC(=N)C1(C#N)C(C#N)(C#N)C2c1ccccc1 (centres unmarked),9.48
17,N/C(=N\OC(=O)c1cc(Br)ccc1Cl)c1ccccn1,11.5
18,Cc1nn(-c2cc(C(F)(F)F)ccc2Cl)c2nc(C(F)(F)F)[nH]c(=O)c12,14.4
19,NC(=O)c1c(N)sc2c1CCCCC2,12.3
20,CC(C)C1Cc2c(C#N)c(N)n(C)c(=S)c2CO1 (centres unmarked),6.25
21,NC(=O)C1CCN(CC(=O)Nc2ccccc2N2CCOCC2)CC1,4.12
22,C=CCN(C)NC(=S)Nc1ccccc1,11.2

row,SMILES,"hERG current change (%, negative = inhibition) at 1uM [%]"
1,COc1ccc(-n2c(O)c(C=NCc3ccccn3)c3ccccc3c2=O)c(OC)c1,13.5
2,O=C(NCc1nnc2c(C(F)(F)F)cc(Cl)cn12)c1cccnc1,22.6
3,Cc1ccc(CN2CCNC(=O)C2CC(=O)N(C)C2CCCCC2)o1 (centres unmarked),7.39
4,O=C(NCc1ccc2c(c1)OCO2)Nc1ccc2nsnc2c1,13.1
5,CCN(CC)C(=O)c1[nH]cnc1C(=O)Nc1ccccc1,15.8
6,Cc1c(NC(=O)COC(=O)CSc2ccc(C(N)=O)cc2[N+](=O)[O-])c(=O)n(-c2ccccc2)n1C,17.4
7,CCN1C(=NCCc2cccnc2)N[C@@H](c2ccccc2)C(C(=O)OC)=C1C,-16.4
8,COc1ccc(S(=O)(=O)NC2CC(=O)N(c3ccccc3)C2)cc1C (centres unmarked),3.33
9,O=C(NCc1cccs1)C1CCC(CNS(=O)(=O)c2ccc(Br)s2)CC1 (centres unmarked),-2.37
10,O=C(NCc1ccc2c(c1)OCO2)C1CCCN1C(=O)Nc1ccc(F)cc1 (centres unmarked),-7.59
11,Cc1noc2ncnc(N3CCN(c4ccc(F)cc4)CC3)c12,-8.95
12,Clc1ccc(-c2nnc(C3CC3)o2)cc1,9.06
13,CCn1c(Sc2ccc(N)cc2Cl)nc2ccccc21,12.3
14,CCOc1ccc(NC(=S)NN(C)C(=S)Nc2ccc(OCC)cc2)cc1,3.77
15,CCOc1ccc(-n2c(C)nc3cc(C(=O)NCC4CCCO4)ccc32)cc1 (centres unmarked),7.88
16,CCC(CC)NC(=O)CO/N=C/c1ccccc1OC(F)F,-4.9
17,CCC(CC)NC(=O)Cc1ccc(S(=O)(=O)N2CCOCC2)s1,10.5
18,Cc1c(O)ccc(C(=O)CN2CCN(c3ccccc3)CC2)c1O,13.2
19,Cc1[nH]c(=O)[nH]c(=O)c1CSCC(=O)OCC(=O)c1ccc(Br)cc1,10.2
20,Cc1oc2c(c1C(=O)Nc1cccc3ccccc13)CCCC2,8.17
21,O=C(Nc1ccccc1-c1ccccc1)NC1CCN(CC(=O)N2CCOCC2)CC1,9.68
22,CC1=C(C(N)=O)C(c2cccnc2)n2nc(-c3cccc(C)c3)nc2N1 (centres unmarked),7.42
